Laboratory results: the supplement of paper PMC10126150
Values marked as one replicate rest on one cluster of the flow cell; about a third of the high ones do not repeat.

system: ATP; assay: switch fluorescence ratio, 500 uM ATP over buffer (Cy3 cluster intensity, sum of 5 cycles each) (fold (ratio)); higher = stronger signal-on switching upon ATP binding; sequences stand for … in TCGTCGGCAGCGTCAGATGTGTATAAGAGACAGTTTTTTTTTTTTTTTTTTTTTTTTT…TC; details: aptamer strand: ATP DNA aptamer (quencher-CACCTGGGGGAGTATTGCGGAGGAAGG + anchor), 100 nM annealed; ATP concentration: 500 uM; one replicate
How it was run: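 After annealing to 100 nM quencher-labelled ATP aptamer, Cy3-labelled switching-strand clusters on a modified Illumina MiSeq flow-cell were imaged in selection buffer. A second image followed after 15 min with 500 uM ATP at 22 °C, and five such buffer/ATP cycles were done, each separated by NaOH stripping and re-annealing. The fluorescence ratio, averaged per switch-domain sequence, is summed target-cycle over summed buffer-cycle Cy3 intensity per cluster, with clusters outside 100-1000 RFU excluded.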
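Further: ATP exposure 15 min at 22 °C before imaging.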

| Sequence | switch fluorescence ratio |
| --- | --- |
| CAATCCGGCG | 0.954 |
| ATACGCAGTT | 0.993 |
| CACGGCCAGC | 1.11 |
| GAATTGAGTT | 1.01 |
| ACGATGGCAT | 1.53 |
| GGTGAGACGG | 1.01 |
| ACATCGTTAT | 0.997 |
| TAGGAATCCT | 1.07 |
| AAAAACATTG | 1.07 |
| GGAACTAAG | 1.01 |
| GCATCTGGCT | 1.02 |
| TGCAACCCGG | 0.992 |
| GAGCCGAGGA | 1.25 |
| TGGGAAGATG | 0.97 |
| TCTTGTGGCG | 1.01 |
| CTGGCCGGTG | 1.01 |
| TACGACCGAT | 1.22 |
| AACTAGTCCC | 1.05 |
| TTATAGGGTG | 1.04 |
| TTCGTGTTGA | 1.02 |
| GTAAGCCCTA | 0.965 |
| AGTATGATAC | 1.08 |
| CAATAGAACC | 1.01 |

| Sequence | switch fluorescence ratio |
| --- | --- |
| TTGATATTGA | 0.988 |
| GATACACACA | 1.34 |
| ACGGGCGTTC | 0.993 |
| TCGAATCATT | 1.01 |
| CGCGTTCAGC | 1.01 |
| TAAAAACGCG | 1.16 |
| ATACTGAGGG | 1.04 |
| GTTGTAAGAC | 0.954 |
| GGTTAACGC | 1.01 |
| TCATCGGTAA | 1.55 |
| TCGTACCGGA | 1.06 |
| AGAGTGCGGC | 1.07 |
| CCTATTTTGA | 0.966 |
| GGGTAAAGCC | 0.976 |
| AAGGGTTCCT | 1.01 |
| GGGGTCTCCT | 0.984 |
| AAAGTCATCA | 0.98 |
| ACAGGTCAGG | 1.07 |
| TACGATGTCC | 1.02 |
| CTATGTACTG | 1 |
| TCTGGAGTAA | 4.87 |
| TGCCGATGTG | 1.03 |
| TATCGTAGGT | 0.985 |

| Sequence | switch fluorescence ratio |
| --- | --- |
| GGTTCGGCCG | 1.01 |
| GACGAACTGA | 0.967 |
| CGGCAGCTAG | 1.03 |
| CGTAAGATCC | 1.08 |
| GACAAGTGTA | 0.958 |
| GGCAGTGTAT | 1.01 |
| AATAACGAGG | 1.03 |
| CACCACGATC | 1.22 |
| CAGAGCAAAC | 4.16 |
| TTGGGATATC | 1 |
| CATGTGAAGT | 0.969 |
| TCGCTCAATT | 1.08 |
| CGTGTATTAA | 1.04 |
| AGTTTTTGAC | 0.985 |
| GTCGAGATAA | 0.991 |
| AGTAGGATTG | 1 |
| TAATGCCGCG | 1.07 |
| GCTATTGTTA | 0.943 |
| CGGAATCTAG | 1 |
| TTAACTGTGA | 1.03 |
| CCCATTAAAT | 0.971 |
| GTACGAAGGT | 1.08 |
| TGCGTTTCGG | 1.02 |

| Sequence | switch fluorescence ratio |
| --- | --- |
| GGTCGAGAAT | 0.982 |
| AGCTACTTAG | 1.07 |
| TACGTAAAA | 1.11 |
| GCTTCGGCGT | 0.969 |
| AATAGACTGC | 0.967 |
| GTTTCCGGTT | 1.05 |
| TGTCGTATCC | 0.995 |
| CACTGGCGGT | 1 |
| AAGTATTCGT | 0.994 |
| TTGGTATGCT | 0.981 |
| CCCTGGGGG | 1.15 |
| ATTTATCACG | 0.996 |
| GAGGCCAGTG | 1.15 |
| CGGTCATCGG | 0.976 |
| CGTTGTAGGC | 1.15 |
| TCGTGCGGGC | 1.06 |
| AATAAGTTCT | 0.935 |
| CCTGGTACCG | 1.01 |
| TTGATTTACC | 1.05 |
| CTTTCCGATT | 1.04 |
| ATAAAGAGGA | 1.02 |
| AAGCCTTGT | 0.995 |
| GCCTCAACTG | 1 |

| Sequence | switch fluorescence ratio |
| --- | --- |
| TACCGAGTTA | 0.984 |
| GTGTAAAGGT | 0.994 |
| TTTGCA | 1.04 |
| ACTGCGCTC | 3 |
| AGAGAGTCGC | 1.06 |
| GGCGAAAGAA | 0.978 |
| TACGAAGCTT | 1.58 |
| TCTGTAGACT | 1.06 |
| CAACTATGTA | 1.02 |
| TTAGTTGTCC | 0.971 |
| ATGTCCGTTG | 1.01 |
| ATCGGCATAA | 1.18 |
| ATTAAGAATA | 0.998 |
| GGAATAACGA | 1.08 |
| GATGCCCCA | 1.02 |
| TTCGGCGAAT | 0.964 |
| AGGAGAGCTG | 0.988 |
| ATTGCCATTC | 0.967 |
| TGCCCCCTGG | 0.995 |
| AATACGGGTA | 1.27 |
| GCGCCAGGTA | 1.09 |
| ACTGGAGCCG | 1.03 |
| CGATGAGCTT | 1 |

| Sequence | switch fluorescence ratio |
| --- | --- |
| GCTCAACTGC | 1.03 |
| AAGCGTTTGC | 1.04 |
| CCGCAGTCCC | 3.42 |
| TGGGAACGGC | 1.13 |
| CGGCATTCTT | 0.991 |
| TCTACTGTG | 1.06 |
| GAAAGCTGGG | 1.06 |
| AAAGGTGTGC | 1.34 |
| TAGGCGCCAG | 0.972 |
| CTTGGTCGCC | 1.06 |
| CCTTGATATA | 1.01 |
| GAAAAACCCT | 1.08 |
| TATGGAGGCA | 0.986 |
| CTTAGACAG | 0.962 |
| AATAGCCGG | 1.01 |
| CTATGTGGCC | 0.992 |
| TGGTTGTATA | 0.974 |
| AGGCTGAGGA | 0.964 |
| GGACAAGCAT | 1.09 |
| TAAACCCCTG | 1.03 |
| GATATCCG | 0.977 |
| AATACTAAAT | 0.986 |
| GCTGGCCTTC | 1 |

| Sequence | switch fluorescence ratio |
| --- | --- |
| CGATGCTAGG | 1.08 |
| TCGCATCCCA | 1.65 |
| GGAATCCTGG | 0.984 |
| ACTATTTTCG | 0.993 |
| TCGTAGAAGT | 1.01 |
| TAGGCCATCC | 1.05 |
| CTTGTGGGAG | 1.02 |
| TAACCCGCCT | 1.02 |
| ATGTTGAGGG | 1.03 |
| TCCGTGTTGA | 0.993 |
| CCTTGTAGGC | 1.07 |
| GTGGTAACTA | 1.01 |
| GGTTGTCAGA | 1.01 |
| GTGCTAAGTG | 1.05 |
| TACCTGCTTA | 1.02 |
| CGTACTAAGC | 1.09 |
| GAGCCTGGCC | 0.995 |
| ACTGCCCAAT | 1.13 |
| GCCGGGGGAG | 1 |
